Like-named read-outs stand apart in the source and are kept apart here.
Legend:
[1] = biological target: T1, PNGase treated recombinant human BCAM (human, UniProt P50895 32-547, deglycosylated with PNGase); experiment: ELISA; deglycosylated
T1 chain: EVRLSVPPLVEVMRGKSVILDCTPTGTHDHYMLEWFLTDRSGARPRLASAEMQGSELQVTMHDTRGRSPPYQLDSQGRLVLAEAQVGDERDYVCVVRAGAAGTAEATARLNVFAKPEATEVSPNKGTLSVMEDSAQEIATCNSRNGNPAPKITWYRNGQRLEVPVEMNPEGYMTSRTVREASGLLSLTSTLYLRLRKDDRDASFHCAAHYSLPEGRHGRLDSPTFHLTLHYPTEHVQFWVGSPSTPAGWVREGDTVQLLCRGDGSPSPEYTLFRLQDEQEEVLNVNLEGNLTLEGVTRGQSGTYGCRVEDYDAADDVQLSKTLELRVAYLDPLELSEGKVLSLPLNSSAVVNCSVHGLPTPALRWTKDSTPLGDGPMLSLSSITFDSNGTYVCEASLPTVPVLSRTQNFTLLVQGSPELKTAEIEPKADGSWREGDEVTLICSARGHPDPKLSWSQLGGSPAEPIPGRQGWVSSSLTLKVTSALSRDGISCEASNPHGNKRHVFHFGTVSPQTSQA

[2] = biological target: T1, PNGase treated recombinant human BCAM; experiment: ELISA; deglycosylated
human BCAM on cells = biological target: T2, human BCAM on cells (human, UniProt P50895 32-628); experiment: flow cytometry binding curve on live Kuramochi cells
T2 construct: whole, on cells; also called full length BCAM; Basal Cell Adhesion Molecule
T2 sequence (looked up): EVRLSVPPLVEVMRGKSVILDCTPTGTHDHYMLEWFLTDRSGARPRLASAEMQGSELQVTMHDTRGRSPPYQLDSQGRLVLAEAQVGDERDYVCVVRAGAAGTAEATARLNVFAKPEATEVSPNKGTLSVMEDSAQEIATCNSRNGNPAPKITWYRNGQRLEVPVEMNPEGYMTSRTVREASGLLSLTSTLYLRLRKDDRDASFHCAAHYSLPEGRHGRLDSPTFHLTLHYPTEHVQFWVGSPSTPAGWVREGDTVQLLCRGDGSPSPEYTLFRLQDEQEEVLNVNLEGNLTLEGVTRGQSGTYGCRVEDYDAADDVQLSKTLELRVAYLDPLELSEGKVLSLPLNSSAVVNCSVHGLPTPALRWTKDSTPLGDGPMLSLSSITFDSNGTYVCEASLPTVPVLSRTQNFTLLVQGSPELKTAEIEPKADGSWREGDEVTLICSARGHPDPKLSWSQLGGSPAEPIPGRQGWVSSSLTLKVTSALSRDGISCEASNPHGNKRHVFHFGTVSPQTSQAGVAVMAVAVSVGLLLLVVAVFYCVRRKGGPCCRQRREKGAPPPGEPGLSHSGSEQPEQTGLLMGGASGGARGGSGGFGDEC

B1: 6N2_22-hIgG1-Fc (full α-BCAM VHH-hIgG1-Fc fusion construct) (Fc fusion)
chain: QVQLVESGGGLVQPGGSLRLSCAASGFTFSSYAMSWVRQAPGKGPEWVSAINSGGGSTSYADSVKGRFTISRDNAKNTLYLQMNSLKPEDTAVYYCAKSWTVRIGQIYHHPTDYWGQGTQVTVSS[human IgG1 Fc left out here]
notes: also called a-BCAM VHH (6N2_22); anti-BCAM VHH
A Kd [1] of about 3.5 nM, a Kd [2] of about 3.5 nM and an EC50 (human BCAM on cells) of 7.2 nM were found for B1 in this work.

— patent US20250051472A1 (Dana-Farber, published 2025)
